Hit rate of the full screen: of about 360,000 compounds, about 520 (0.14%) were called active. This list was built around the results that the source calls inconclusive (neither active nor inactive); the mix of calls is not that of the screen. Calls come from the whole dose curve; as a rule, active = well fitted inhibition curve with a large enough effect; inconclusive = small, poorly fitted or top-dose-only effect; inactive = no such curve, though single readings can be large or run the other way. Potencies of inconclusive entries are left out as doubtful fits.
Each compound was assayed against Rap guanine nucleotide exchange factor 3 (Homo sapiens) (UniProt O95398) (assay: qHTS for Antagonist of cAMP-regulated guanine nucleotide exchange factor 3 (EPAC1): primary screen). Details: EPAC1 GEF assay, Rap1b-BODIPY-GDP exchange fluorescence; activity change, negative = inhibition: at 115 µM (top of the series).
UniProt O95398, sequence (O95398 whole entry, looked up): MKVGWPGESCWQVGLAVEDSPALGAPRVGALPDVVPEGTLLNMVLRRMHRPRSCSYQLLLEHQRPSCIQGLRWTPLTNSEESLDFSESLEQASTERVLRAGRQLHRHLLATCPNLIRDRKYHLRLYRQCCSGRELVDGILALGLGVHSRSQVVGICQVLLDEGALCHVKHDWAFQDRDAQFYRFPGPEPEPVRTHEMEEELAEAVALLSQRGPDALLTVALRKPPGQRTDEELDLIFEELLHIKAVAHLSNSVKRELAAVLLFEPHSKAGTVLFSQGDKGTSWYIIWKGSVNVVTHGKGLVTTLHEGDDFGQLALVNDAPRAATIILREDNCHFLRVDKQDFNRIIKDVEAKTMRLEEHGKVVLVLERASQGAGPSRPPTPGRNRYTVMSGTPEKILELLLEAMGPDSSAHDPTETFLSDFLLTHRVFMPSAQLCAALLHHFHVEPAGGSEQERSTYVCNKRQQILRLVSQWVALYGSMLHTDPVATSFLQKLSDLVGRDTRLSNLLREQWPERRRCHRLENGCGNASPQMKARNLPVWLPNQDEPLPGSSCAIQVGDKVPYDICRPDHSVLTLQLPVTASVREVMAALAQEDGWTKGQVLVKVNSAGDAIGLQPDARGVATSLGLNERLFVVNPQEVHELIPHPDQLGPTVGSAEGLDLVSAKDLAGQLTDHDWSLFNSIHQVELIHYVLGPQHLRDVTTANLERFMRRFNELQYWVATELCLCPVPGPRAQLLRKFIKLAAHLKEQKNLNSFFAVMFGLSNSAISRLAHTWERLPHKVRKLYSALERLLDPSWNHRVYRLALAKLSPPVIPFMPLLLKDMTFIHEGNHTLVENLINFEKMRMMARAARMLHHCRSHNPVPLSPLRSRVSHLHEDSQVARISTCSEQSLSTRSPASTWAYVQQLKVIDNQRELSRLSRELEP
In the case of `Cc1nc(C)n(CC(=O)N2CCCC(C(=O)c3ccc(Cl)cc3C)C2)n1` (configuration not stated), the Potency is reported as inconclusive [inhibitor, single point]. With `N#C/C(=C\c1ccccn1)c1nc2ccccc2s1` the Potency was inconclusive [inhibitor, partial curve]. In the case of `CCOC(=O)c1ccc(N2C(=O)CC(C3CCCO3)C2=O)cc1` (configuration not stated), the Potency is reported as inconclusive [inhibitor, single point]. With `O=c1c(Br)ccc(Br)cc1Br` the Potency was inconclusive [inhibitor, single point]. `O=[N+]([O-])c1ccc(O)c(C(C#Cc2ccccc2)N2CCOCC2)c1` (configuration not stated) was tested, and the Potency was inconclusive [inhibitor, full curve, poor fit]. In the case of `COc1ccc(S(=O)(=O)N2CCN(Cc3ccc4c(c3)OCO4)CC2)cc1`, the Potency is reported as inconclusive [inhibitor, full curve, poor fit]. For `COC(=O)C1=C(N)N(c2ccccc2F)C2=C(C(=O)CC(C)(C)C2)C1c1ccc(OC)c(OC)c1` (configuration not stated), the Potency was inconclusive [inhibitor, single point]. With `O=C(CCCc1c[nH]c2ccccc12)NCCc1c[nH]c2ccccc12` the Potency was inconclusive [inhibitor, full curve, poor fit]. For `COc1ccc(S(=O)(=O)N2CCOC2CNC(=O)C(=O)NCCc2c[nH]c3ccccc23)cc1C` (configuration not stated), the Potency was inconclusive [inhibitor, single point]. `COc1ccc(N2CCN(C(=O)c3sc4nc(-c5ccc(F)cc5)cn4c3C)CC2)cc1` was tested, and the Potency was inconclusive [inhibitor, single point]. With `COC(=O)c1c(-c2ccc(C)cc2)csc1N` the Potency was inconclusive [inhibitor, single point]. With `CCOC(=O)c1sc(NC(=O)OC)c(C(=O)OC)c1C` the Potency was inconclusive [inhibitor, partial curve, poor fit]. In the case of `COC(=O)CSC1=C(C#N)C(=O)NC2(CCCCC2)S1`, the “activity change, negative = inhibition” value is reported as inactive: 3.04%. `COc1ccc(C2C(O)C(c3c[nH]c4ccccc34)=NN2C(=O)CCl)cc1` (configuration not stated) was tested, and the Potency was inconclusive [inhibitor, full curve, poor fit]. With `Cc1c(C(=O)O)[nH]c2c1C(=O)CC(c1ccccc1)C2` (configuration not stated) the Potency was inconclusive [inhibitor, full curve, poor fit]. In the case of `N#C/C(=C(/O)c1ccccc1F)c1nc2cc(C(F)(F)F)ccc2s1`, the Potency is reported as inconclusive [inhibitor, single point]. `CCCCCC(O)(c1ccccc1)C(CN1CCOCC1)c1ccccc1` (configuration not stated) was tested, and the Potency was inconclusive [inhibitor, partial curve]. `CC(Sc1cccc[n+]1[O-])C(=O)Nc1ccc(Oc2ccccc2)cc1` (configuration not stated) was tested, and the “activity change, negative = inhibition” value was inactive: 2.44%. `O=[N+]([O-])c1ccc(C(O)CSC(=S)N2CCCCC2)cc1` (configuration not stated) was tested, and the “activity change, negative = inhibition” value was inactive: -14.1%. For `CCOc1ccc(NS(=O)(=O)c2cc3c(cc2C)N(C)CCO3)cc1`, the Potency was inconclusive [inhibitor, single point]. `Cc1cc(C)cc(OC(=O)CS(=O)c2ccc(C(F)(F)F)cc2[N+](=O)[O-])c1` (configuration not stated) was tested, and the Potency was inconclusive [inhibitor, full curve, poor fit]. In the case of `O=C(O)C1=C[C@@H](c2coc3ccccc3c2=O)C[C@@H](OCCCCO)O1`, the Potency is reported as inconclusive [inhibitor, single point]. `Cc1ccc(NC(=O)c2cc(-c3cc(F)ccc3OCC3CCCO3)n[nH]2)cc1NS(C)(=O)=O` (configuration not stated) was tested, and the “activity change, negative = inhibition” value was inactive: -14.8%. `CC(=O)N1CCc2cc(N=NC3=C(O)CC(C)(C)CC3=O)ccc21` was tested, and the Potency was inconclusive [inhibitor, partial curve, poor fit]. For `Cc1cc(C)nc(-n2nc(C)cc2NC(=O)CNCc2ccccc2)n1`, the Potency was inconclusive [inhibitor, full curve, poor fit]. `CN1CCN(c2cccc3c2S(=O)(=O)N[C@H](Cc2ccccc2)CO3)CC1` was tested, and the Potency was inconclusive [inhibitor, single point]. For `COC(=O)c1cc(S(=O)(=O)N2CCCCC2)c[nH]1`, the Potency was inconclusive [inhibitor, single point]. `CCOC(=O)c1c(NC(=O)/C=C/c2ccc3c(c2)OCO3)sc(C)c1CC` was tested, and the “activity change, negative = inhibition” value was inactive: -0.641%. In the case of `COc1ccccc1NS(=O)(=O)c1ccc(Cl)c(NC(=S)NC(=O)C2CCCC2)c1`, the Potency is reported as inconclusive [inhibitor, partial curve]. With `CNc1ccccc1C(=O)OC(C)C(=O)Nc1ccc(Cl)cn1` (configuration not stated) the “activity change, negative = inhibition” value was inactive: -19.1%. With `O=C(NN=C1CCCCCC1)NC1CCCCC1` the “activity change, negative = inhibition” value was inactive: 8.97%. For `O=C(O)C1Nc2c(O)cccc2C2C=CCC12` (configuration not stated), the Potency was inconclusive [inhibitor, partial curve]. In the case of `O=C1C(Nc2ccc(O)cc2)=C/C(=N/S(=O)(=O)c2cccs2)c2ccccc21`, the “activity change, negative = inhibition” value is reported as inactive: -11.9%. With `CCOC(=O)C/C(=N\Nc1ncnc2ccccc12)c1ccccc1` the Potency was inconclusive [inhibitor, single point]. With `CCOC(=O)C1(C)Oc2ccccc2C(c2ccc(OC)cc2)=C1C(=O)OC` (configuration not stated) the Potency was inconclusive [inhibitor, partial curve]. With `CCC(=O)NCCC(c1ccco1)c1ccccc1OC` (configuration not stated) the “activity change, negative = inhibition” value was inactive: 12.9%. In the case of `CCCN(CCC)C(=O)CC(c1ccccc1)c1ccc(C)cc1O` (configuration not stated), the Potency is reported as inconclusive [inhibitor, single point]. In the case of `CCOC1=C2[C@@H](CN(S(=O)(=O)c3ccc(C)cc3)[C@H]2c2ccccc2F)[C@H]2C(=O)NC(=O)[C@H]2C1`, the “activity change, negative = inhibition” value is reported as inactive: 9.12%. In the case of `CC(C)(C)NC(=O)C(=O)NNC(=O)COc1ccc(Br)cc1`, the Potency is reported as inconclusive [inhibitor, single point]. `COc1ccc([C@H]2CC(=O)C=C(c3cccc(Br)c3)C2)cc1` was tested, and the “activity change, negative = inhibition” value was inactive: -17%. For `CCn1c2ccccc2c2cc(NC(=O)COC(=O)c3cc(S(=O)(=O)N4CCCCC4)ccc3Cl)ccc21`, the Potency was inconclusive [inhibitor, full curve, poor fit]. In the case of `CCn1c(=O)cc(OCC(=O)NCCC(C)C)c2ccccc21`, the Potency is reported as inconclusive [inhibitor, single point].

— PubChem BioAssay AID720709 (National Center for Advancing Translational Sciences (NCATS), 2013)
Note: nearly all actives have a fitted effect of over 50% in size.
Potency is the fitted concentration of half-maximal effect; tags give direction and shape of the fitted curve.
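Throughout, for activity change, negative = inhibition: plate controls were vehicle for no effect and positive control for full effect.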
